# PubChem BioAssay AID686978 (National Center for Advancing Translational Sciences (NCATS), 2013)
# Out of some 420,000 compounds screened, about 64,000 (15%) were called active. The inconclusive results got no clear call from the source; some entries with a clear call stand among them for comparison. Calls come from the whole dose curve; as a rule, active = well fitted inhibition curve with a large enough effect; inconclusive = small, poorly fitted or top-dose-only effect; inactive = flat fitted curve, though single readings scatter. Potencies of inconclusive entries are left out as doubtful fits.
# Experiment: qHTS for Inhibitors of human tyrosyl-DNA phosphodiesterase 1 (TDP1): qHTS in cells in absence of CPT; note: nearly all actives have a fitted effect of over 55% in size
# Conditions: DT40 Tdp1-/- hTDP1 cells, no CPT, ATP luminescence, 48 h; activity change, negative = growth inhibition: at 46.2 µM (top of the series)
# Method in brief: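 Camptothecin absent (DMSO only). Human TDP1-complemented DT40 knockout cells, 400 cells/well, 37 °C for minimum 48 hr; ATP measured via CellTiter-Glo, 30 min dark incubation, luminescence.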
# % is set by controls: 0 for no effect and ±100 for the full control effect; potency is the fitted concentration of half-maximal effect; tags give direction and shape of the fitted curve.
Structure (SMILES),Potency,"activity change, negative = growth inhibition"
Cc1cccc(Nc2cc(C)nc(-n3nc(C)cc3C)n2)c1,active: 3.26 µM,
CCN(C(=O)COC(=O)/C=C/c1ccc2c(c1)OCO2)c1c(N)n(Cc2ccccc2)c(=O)[nH]c1=O,inactive,
Cc1cccc(NCC(=O)N/N=C/c2ccc(Br)cc2)c1,"inconclusive [inhibitor, single point]",
COc1nnc(-c2ccc(C)c(S(=O)(=O)NCC3CCCO3)c2)c2ccccc12 (stereo not drawn),"inconclusive [inhibitor, partial curve, poor fit]",
CN(C)c1cc(-c2ccc(Cl)c(Cl)c2)oc(=O)c1Cl,"inconclusive [inhibitor, partial curve]",
CCN1C[C@@H]2[C@@H]3C(=O)N(C)C(=O)[C@@H]3[C@](Cc3ccccc3)(C1=O)N2C(=O)c1ccc(Br)cc1,inactive,
CCOC(=O)C1=C(C)n2c(s/c(=C/c3cccc([N+](=O)[O-])c3)c2=O)=NC1c1ccc(O)c(OC)c1 (stereo not drawn),active: 16.4 µM,
Cc1ccc(N(Cc2ccccc2)C(=O)c2cc(S(=O)(=O)N3CCOCC3)ccc2C)cc1,active: 13 µM,
O=C(COc1ccccc1/C=C\c1[nH]c(=O)[nH]c(=O)c1[N+](=O)[O-])Nc1ccccc1,inactive,
COc1ccc(/C=C/C(=O)Nc2cccc(F)c2)cc1S(=O)(=O)N1CCOCC1,"inconclusive [inhibitor, partial curve, poor fit]",
CC1CCN(C(=O)COC(=O)c2n[nH]c3ccccc23)CC1,inactive,
CCOC(=O)c1cccc(NS(=O)(=O)c2ccc(-c3coc(C)n3)cc2)c1,"inconclusive [inhibitor, partial curve]",
Cc1cccc(C)c1NC(=S)N1CCCN(C)CC1,inactive,
CC1CCN(c2nc3c(c(=O)n(C)c(=O)n3C)n2CCSc2ncccn2)CC1,"inconclusive [inhibitor, partial curve]",
CC(CN1CCCC1)OC(=O)COc1ccccc1 (stereo not drawn),inactive,
CC(Oc1ccccc1Cl)C(=O)Nc1ccccc1C(=O)N1CCOCC1 (stereo not drawn),inactive,
O=C(NC1CCCC1)c1ccccc1OCc1ccccc1,"inconclusive [inhibitor, single point]",
Cc1c(Cl)cccc1-n1c(SCC(=O)N(C)Cc2ccccc2)nnc1-c1ccncc1,,inconclusive: -31.5% [inhibitor]
O=[N+]([O-])c1ccc(CN2C=NS(=O)(=O)c3ccccc32)cc1,"inconclusive [inhibitor, full curve]",
Cn1cc(S(=O)(=O)CC(=O)N2CCCc3ccccc32)c2ccccc21,"inconclusive [inhibitor, single point]",
COc1ccc(-c2cc(C(F)(F)F)n3ncc(-c4ccccc4)c3n2)cc1,"inconclusive [inhibitor, full curve]",
C=CCn1c(SCC(=O)Nc2ccc(O)cc2)nc2sc(C)c(C)c2c1=O,inactive,
COc1cc2c(cc1OC)C(c1ccc(Br)cc1)NCC2 (stereo not drawn),"inconclusive [inhibitor, partial curve]",
CC1CCCCN1C(=O)c1ccc(C(=O)Nc2ccc(F)cc2)cc1 (stereo not drawn),"inconclusive [inhibitor, single point]",
Cc1cc(C)c(NC(=O)C2CCCO2)c(C)c1 (stereo not drawn),inactive,

Structure (SMILES),Potency,"activity change, negative = growth inhibition"
Cc1ccc(-c2nc3c(c(=O)[nH]c(=O)n3CC(C)C)n2CC(C)C)cc1[N+](=O)[O-],active: 29.1 µM,
O=C1C=C(c2ccc3c(c2)OCCO3)C[C@@H](c2ccc(F)cc2)C1,"inconclusive [inhibitor, single point]",
COc1nc(Nc2ccc(-c3nc4ccccc4o3)cc2)nc(N2CCOCC2)n1,inactive,
Cc1cc(C)c(NC(=O)C2CCN(C(=O)N3CCOc4ccccc43)CC2)c(C)c1,"inconclusive [inhibitor, single point]",
COc1ccc(OCCOC(=O)c2cc(S(=O)(=O)N3CCOCC3)c(Cl)cc2Cl)cc1,"inconclusive [inhibitor, single point]",
Cc1ccc(C(=O)NC(=S)N(C)C2CCCCC2)cc1,inactive,
COc1cccc(C(C)(O)c2nc(/C=C/c3ccccc3)cs2)c1 (stereo not drawn),active: 18.4 µM,
COc1cc2c(cc1NC(=O)COc1ccc(Br)cc1)oc1ccccc12,"inconclusive [inhibitor, single point]",
CCCNS(=O)(=O)c1ccc(CCC(=O)NCc2cccnc2)cc1,inactive,
Cc1ccc(S(=O)(=O)CC(=O)Nc2nc3c(C)cccc3s2)cc1,inactive,
CCOC(=O)c1cc(S(=O)(=O)NCCc2ccc(OC)c(OC)c2)cn1C,inactive,
Cc1ccc(-c2c3c(=O)n(C)c(=O)n(C)c3c3cnc4ccccc4n23)cc1,inactive,
O=CN1N=C(c2ccccc2)CC1c1ccc(Cl)cc1 (stereo not drawn),"inconclusive [inhibitor, single point]",
COc1cc(C)c(S(=O)(=O)NOCc2ccc([N+](=O)[O-])cc2)c(C)c1C,"inconclusive [inhibitor, single point]",
CC1Cc2ccccc2N1C(=O)CN1C(=O)NC(C)(CCc2ccccc2)C1=O (stereo not drawn),inactive,
O=C(CN1CCCC1)Nc1ccc(F)c(Cl)c1,inactive,
CC(C)CC(=O)Nc1ccc([N+](=O)[O-])cc1Cl,inactive,
O=C(C1CCCN(S(=O)(=O)c2ccccc2)C1)N1CCN(c2ccc(F)cc2)CC1 (stereo not drawn),active: 11.6 µM,
Cc1c(C)c2ccc(OCC(=O)N3CCOCC3)c(C)c2oc1=O,inactive,
Cc1cc(C(=S)N2CCOCC2)c(C)n1-c1ccc(Cl)cc1,active: 20.6 µM,
COc1ccc(NC(=S)NC2CCS(=O)(=O)C2)cc1 (stereo not drawn),inactive,
Cc1cc(=O)oc2cc(N3C(=O)CC(Cc4ccccc4)C3=O)ccc12 (stereo not drawn),inactive,
CNC(C)C#Cc1ccc2c(=O)c3cc(C)c(C)cc3oc2c1 (stereo not drawn),active: 29.1 µM,
Cc1ccc(N2CCN(Cc3nnc(-c4ccccc4F)o3)CC2)c(C)c1,"inconclusive [inhibitor, single point]",
COc1ccc(N2C(=O)C3C4C=CC(C5CC45)C3C2=O)c([N+](=O)[O-])c1 (stereo not drawn),,inconclusive: -33.6% [inhibitor]

Structure (SMILES),Potency,"activity change, negative = growth inhibition"
CCN1CCN(C(=O)C2CCN(c3nnc(C)c4c(C)n(-c5ccc(C)cc5)nc34)CC2)CC1,"inconclusive [inhibitor, single point]",
O=C(Nc1ccc(-c2nc3cccnc3s2)cc1)C1CCCO1 (stereo not drawn),active: 20.6 µM,
CC(=O)N1CCc2cc(Br)cc(S(=O)(=O)NCCc3cccc(C)c3)c21,"inconclusive [inhibitor, single point]",
COC(=O)c1ccc(Nc2cc(C)nc3ccccc23)cc1,active: 18.4 µM,
O=Nc1c2cc3ccccc3[nH]c-2c2ccccc12,"inconclusive [inhibitor, single point]",
O=C(CSc1nc2[nH]c(=O)cc(O)c2s1)Nc1ccc(Cl)c(C(F)(F)F)c1,inactive,
COc1ccccc1C(=O)Nc1ccccc1C(=O)NC1CCCCC1,"inconclusive [inhibitor, single point]",
CCOc1ccc(NC(=O)CCc2c(C)nc3nc(-c4cc(OC)cc(OC)c4)nn3c2C)cc1,"inconclusive [inhibitor, partial curve]",
COc1cccc(NC(=O)/C(C#N)=C/c2c(C)n(Cc3ccccc3)c3ccccc23)c1,"inconclusive [inhibitor, full curve]",
CCOC(=O)c1c(C)[nH]c(C)c1S(=O)(=O)N1CCCC(C(=O)Nc2cccc(CC)c2)C1 (stereo not drawn),"inconclusive [inhibitor, partial curve]",
COc1ccccc1N1CCN(c2nc(CNC(=O)c3ccc4c(c3)OCO4)nc3ccccc23)CC1,active: 13 µM,
CN(CCCc1cnc[nH]1)C(=S)NCCCN(Cc1ccc(Cl)cc1)c1ccc(Br)cn1,"inconclusive [inhibitor, single point]",
Cc1cc2c(cc1C)NC1(C(=O)Nc3ccccc31)C1=C(CC(C)(C)CC1=O)N2 (stereo not drawn),,inconclusive: -1.53% [inhibitor]
O=C(/C=C/c1cnc2ccccc2n1)NC1CCCCCC1,"inconclusive [inhibitor, partial curve, poor fit]",
COc1cccc(N2CCN(C(=O)c3oc4ccccc4c3NC(=O)Cc3ccc(OC)c(OC)c3)CC2)c1,"inconclusive [inhibitor, partial curve]",
CC1CCCN(C(c2cccs2)c2nnnn2Cc2ccccc2)C1 (stereo not drawn),"inconclusive [inhibitor, single point]",
COc1ccc(-n2nnc(-c3nsc(NC(=O)c4cccc(C)c4)n3)c2C)cc1OC,"inconclusive [inhibitor, partial curve, poor fit]",
Cc1nn(Cc2ccccc2Cl)c2sc(C(=O)NC(C)(C)C)cc12,"inconclusive [inhibitor, single point]",
O=C(Nc1ccc(Cl)c(C(F)(F)F)c1)c1nc2ccccc2nc1N1CCCCC1,"inconclusive [inhibitor, partial curve]",
CC1(C)CC(=O)C=C(NC2=CC3OC(c4ccccc4)OCC3OC2=O)C1 (stereo not drawn),active: 6.51 µM,
C/C(=N\NC(=O)C(c1ccncc1)N1CCOCC1)c1ccc(Br)cc1 (stereo not drawn),inactive,
CCOC(=O)c1ccc(-n2c(CN3CCC(O)CC3)nc3ccc([N+](=O)[O-])cc3c2=O)cc1,"inconclusive [inhibitor, single point]",
Cc1cc(C(=O)NCC2CCC3(CCN(Cc4cc(F)ccc4F)CC3)O2)n(C)n1 (stereo not drawn),"inconclusive [inhibitor, partial curve]",
